Results taken from PMC4336329 (PLoS ONE, 2015).
Among all 310,000 compounds or so, about 14,000 (4.5%) showed an effect of 50% or more. Effects have a minus sign here. This is one part of the list.

target: human ether-à-go-go-related gene (hERG) potassium channel (human, UniProt Q12809); assay: primary screen, population patch clamp on CHO cells stably expressing hERG
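Also: peak tail current of the secondary pulse compared with the same well before compound.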

Chain of human ether-à-go-go-related gene (hERG) potassium channel (Q12809 whole entry, looked up): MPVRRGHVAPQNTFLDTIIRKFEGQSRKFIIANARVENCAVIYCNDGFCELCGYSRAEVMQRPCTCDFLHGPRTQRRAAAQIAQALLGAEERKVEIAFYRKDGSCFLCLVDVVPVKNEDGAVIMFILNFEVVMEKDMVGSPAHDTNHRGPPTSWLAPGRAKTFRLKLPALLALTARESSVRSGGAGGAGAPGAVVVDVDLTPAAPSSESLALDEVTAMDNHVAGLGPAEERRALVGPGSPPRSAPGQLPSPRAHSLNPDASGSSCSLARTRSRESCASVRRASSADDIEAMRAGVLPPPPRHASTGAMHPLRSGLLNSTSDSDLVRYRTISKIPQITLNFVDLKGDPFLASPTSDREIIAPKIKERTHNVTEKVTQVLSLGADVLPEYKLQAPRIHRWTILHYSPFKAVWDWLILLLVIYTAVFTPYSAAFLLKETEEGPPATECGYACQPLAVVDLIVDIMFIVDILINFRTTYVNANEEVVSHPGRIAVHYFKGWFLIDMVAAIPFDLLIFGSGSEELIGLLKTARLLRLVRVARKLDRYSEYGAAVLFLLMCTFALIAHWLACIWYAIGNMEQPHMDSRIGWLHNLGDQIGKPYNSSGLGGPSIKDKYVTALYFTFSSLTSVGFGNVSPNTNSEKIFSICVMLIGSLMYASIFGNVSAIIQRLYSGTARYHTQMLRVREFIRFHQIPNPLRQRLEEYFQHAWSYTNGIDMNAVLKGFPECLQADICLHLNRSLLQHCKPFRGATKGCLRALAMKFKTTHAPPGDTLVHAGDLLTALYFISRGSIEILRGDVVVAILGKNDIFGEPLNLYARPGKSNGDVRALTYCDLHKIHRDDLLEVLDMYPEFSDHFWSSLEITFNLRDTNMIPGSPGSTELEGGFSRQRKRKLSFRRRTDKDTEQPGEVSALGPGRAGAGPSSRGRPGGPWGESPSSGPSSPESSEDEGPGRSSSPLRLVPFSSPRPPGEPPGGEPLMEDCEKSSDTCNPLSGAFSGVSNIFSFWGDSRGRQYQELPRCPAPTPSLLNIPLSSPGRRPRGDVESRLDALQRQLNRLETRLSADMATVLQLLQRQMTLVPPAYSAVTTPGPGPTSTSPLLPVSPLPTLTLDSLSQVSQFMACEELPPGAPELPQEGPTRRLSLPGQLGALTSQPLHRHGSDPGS

Point of comparison: `COc1ccc(S(=O)(=O)NCc2ccccn2)cc1NC(=O)c1ccccc1`, “hERG current change (%, negative = inhibition) at 10uM” value 8.45%. Against it:
- CC(C)C(=O)Nc1cc(S(=O)(=O)Nc2ccc(Cl)cc2)ccc1Cl — lower, -3.35%
- CN(C)Cc1cc(O)c(CN(C)C)cc1O — lower, 4.42%
- CCNC(=O)C1Cc2cc(S(=O)(=O)N3CCCC3)ccc2N1C(C)=O (centres unmarked) — higher, 10.5%
- COc1cc(-c2[nH]ncc2CN(C)Cc2nonc2C)cc(OC)c1OC — lower, -7.85%
- CC(C)(C)NC(=O)CSc1nnc(NC(=O)CCn2cnc3ccccc3c2=O)s1 — higher, 19.6%
- CCOc1cc(-c2noc(CCCC(=O)NC3CCCCC3)n2)ccc1OC — lower, -6.17%
- CC(=O)C1=C(O)C(=O)N(Cc2ccccc2)C1c1ccc(Cl)cc1 (centres unmarked) — higher, 15%
- O=C1Nc2ccc3sc4ccccc4c3c2C1=O — higher, 11.8%
- CC1Cc2cc(S(=O)(=O)CCC(=O)NC3CCCCC3)ccc2N1C(=O)C1CC1 (centres unmarked) — higher, 8.62%
- COc1ccccc1OCC(=O)N1CCCC(Nc2ccc(C)c(C)c2)C1 (centres unmarked) — lower, -11%
- CC1(C)Cc2noc(N)c2C(C)(C)N1O.Cl — higher, 8.55%
- COc1ccc(N2CCN(C(=O)c3ccc(NS(=O)(=O)c4cccs4)cc3)CC2)cc1 — lower, -30.7%
- Cc1ccc(C(=O)NC2CCSC2=O)cc1 (centres unmarked) — lower, 7.89%
- O=C1c2cccc3cccc(c23)C(=O)N1CCN1CCN(C(=S)Nc2ccc(F)cc2)CC1 — lower, 8.16%
- CC(=O)c1c(C(C)=O)c(C)n(NC(=O)c2cccnc2)c1C — higher, 10.6%
- Cc1cc(S(=O)(=O)N2CCCC2C(=O)N2CCOCC2)c(C)cc1Cl (centres unmarked) — lower, -31.6%
- CCCN1CCN(CCCNC(=O)c2ccc3c(=O)n(CCc4ccccc4)c(=O)[nH]c3c2)CC1 — lower, 3.7%
- CC(C)NC(=O)NC(=O)COC(=O)c1ccccc1O — lower, -9.91%
- CC1(C)CC(NC(=O)c2ccc(Cl)c(S(=O)(=O)N(Cc3ccccc3)c3ccccc3)c2)CC(C)(C)N1 — lower, -62.3%
- CCOC(=O)c1c(C)noc1CP(=O)(c1ccccc1)c1ccccc1 — lower, -6.61%
- Cc1cc(C)cc(N(C(=O)CCC(=O)Nc2ccccn2)C(C(=O)NC(C)C)c2ccc(O)cc2)c1 (centres unmarked) — higher, 11.9%
- Cc1ccc(OCCOCCN2CCCCC2)c([N+](=O)[O-])c1.O=C(O)C(=O)O — lower, -37.5%
- CC(C)(C)NC(=S)N/N=C/c1c(Cl)cccc1Cl — higher, 9.12%
- CCOc1ccc(NC(=O)CN(C)C(=O)c2ccc(N3CCCCC3)c([N+](=O)[O-])c2)cc1OCC — lower, -57.6%
- O=S(=O)(c1ccc(C(F)(F)F)cc1)N1CCN(CCc2ccccc2)CC1 — lower, 5.81%
- [O-][Cl+3]([O-])([O-])[O-].c1ccc(-c2[nH]c(-c3ccccc3)[n+](CC3CO3)c2-c2ccccc2)cc1 (centres unmarked) — lower, -28.5%
- CN(CC(=O)Nc1ccc(Cl)c(C(F)(F)F)c1)C(=O)CCc1nc2ccccc2c(=O)[nH]1 — lower, -8.34%
- Clc1ccccc1Nc1c2c(nc3ncnn13)CCC2 — lower, -21.8%
- CN1CCC(=NNC(=O)CSCc2ccccc2)CC1 — lower, -0.628%
- CCc1ccc(CN(C)C(=O)c2cc(COc3cc(C)c(Cl)c(C)c3)on2)nc1 — higher, 14.7%
- COc1ccc(OC)c(C(=O)c2ccccn2)c1 — lower, -35.1%
- CC(NC(=O)c1ccnc(C(C)(C)C)c1)c1ccccc1 (centres unmarked) — higher, 21.6%
- CCCCN(CC)C(=O)c1ccccc1Oc1ccccc1 — lower, -10.8%
- COC(=O)c1cncc(O)c1 — lower, 3.95%
- O=S(=O)(c1ccc(Br)s1)N1CCN(c2ccnc3cc(Cl)ccc23)CC1 — lower, -14.8%
- CCCCOc1ccccc1C1C(C(=O)OC)=CN(CC)C=C1C(=O)OC — lower, -16%
- CC(OC(=O)CCCNC(=O)c1ccc(Cl)cc1)C(=O)N(C)Cc1ccccc1 (centres unmarked) — lower, -54.2%
- CC(C)(C)c1ccc(Oc2ccc(NC(=O)CCCC(=O)O)cn2)cc1 — higher, 12%
- COC(=O)c1c(NC(=O)CN2C(=O)NC3(CCc4ccccc4C3)C2=O)sc2c1CCCCC2 (centres unmarked) — higher, 21.5%
- Cc1occc1C(=O)NNC(=S)Nc1ccccc1C(F)(F)F — lower, 6.27%
- O=C(COC(=O)/C=C/c1ccc(F)cc1)Nc1ccc2[nH]c(=O)[nH]c2c1 — lower, 3.95%
- CCCCCn1nc(C(=O)N2CCc3ccccc32)c2ccccc2c1=O — lower, -3.43%
- CN1CCN(CCCNCc2cn(CCC#N)c3ccccc23)CC1.O=C(O)C(=O)O — higher, 9.43%
- COc1ccc2[nH]c(C)c(CCN(Cc3cccs3)C(=S)Nc3ccccc3)c2c1 — lower, 6.86%
- Cc1cccc(NC(=S)N/N=C/c2cccc(O)c2)c1C — lower, -1.2%
- CCOc1cc(C=C2C(=O)NC(=O)NC2=O)cc([N+](=O)[O-])c1O — higher, 23.9%
- O=[N+]([O-])c1ccc(N2CCN(Cc3ccc(Br)o3)CC2)cc1 — lower, -65.1%
- O=C(NCc1ccccc1)C(c1c(F)cccc1Cl)N(C(=O)c1csnn1)C1CC1 (centres unmarked) — lower, 1.08%
- O=C(N/N=C/c1ccccc1C(F)(F)F)c1ccc2nc[nH]c2c1 — higher, 12.6%
- C=CCn1c(NC(=O)c2ccccc2)nc2ccccc21 — higher, 13%
- O[C@H]1COC2C1OC[C@@H]2O (some centres unmarked) — lower, -2.19%
- C/C(=C\C(=O)c1ccc(Br)cc1)NCc1ccc2c(c1)OCO2 — lower, 3.29%
- CCOC(=O)C1=C(C)Nc2ccccc2N=C1NC(=O)c1ccc(Cl)c(S(=O)(=O)N2CCCC2)c1 — lower, 0.0828%
- C=CCn1c(C)cc(C2=NNC(=NCC)SC2)c1C.Cl — lower, -38%
- COc1ccc(-n2nc(C(=O)NCC(=O)Nc3cccc(Cl)c3)c3ccccc3c2=O)cc1OC — higher, 16.2%
- Cc1ccc(-n2c(O)c(C=NCc3cccnc3)c(=O)[nH]c2=O)cc1C — lower, 6.07%
- C/C(=N/NC(=O)CCC(=O)Nc1ccc(Br)cc1)c1ccc(Br)cc1 — higher, 12.7%
- C/C(Cn1nc([N+](=O)[O-])cc1C)=N\NC(=O)COc1ccc(Cl)cc1Cl — lower, -66.3%
- CC(=O)C1=C(O)C(=O)OC1c1ccc(C)cc1 (centres unmarked) — higher, 28.2%
- COc1cccc(NC(=O)CN(C)C(=O)c2ccc3ccccc3c2)c1 — lower, 1.99%
- COc1ccc(Cc2n[nH]c(=S)n2NC(=O)Nc2ccc(Cl)c(Cl)c2)cc1 — higher, 16.3%
- COc1ccc2c(c1)[nH]c1c(N3CCSCC3)ncnc12 — lower, -20%
- COc1cccc(/C=N/NC(=O)C(=O)N/N=C/c2cccc(OC)c2OC)c1OC — lower, 4.36%
- O=C(CCN1C(=O)/C(=C\C=C\c2ccccc2)SC1=S)Nc1ccccc1C(=O)O — lower, -0.0728%
- CCCn1c(SCC(=O)Nc2cc(Cl)ccc2OC)nc(O)cc1=O — lower, -5.33%
- Nc1cc(-c2ccccc2)nn1S(=O)(=O)c1ccc(F)cc1 — lower, -18.2%
- CN(C)c1nnnn1-c1ccc(Cl)cc1 — lower, -5.09%
- COc1ccc(S(=O)(=O)N2CCC(C(=O)NCc3ccccn3)CC2)cc1OC — lower, -5.84%
- O=C(COC(=O)c1ccc([N+](=O)[O-])s1)Nc1ncc(C(F)(F)F)cc1Cl — lower, -63%
- O=C(Cn1nnc(-c2ccccc2)n1)NC1CCS(=O)(=O)C1 (centres unmarked) — higher, 10.9%
- COc1ccccc1C(=O)NCCC(=O)N(C)CC(=O)Nc1ccc(C)cc1 — lower, 7.91%
- COc1ccc(NS(=O)(=O)c2ccc(C)c(C(=O)N(C)CCc3ccc(OC)c(OC)c3)c2)cc1 — lower, -13.7%
- CCOc1ccc(CNc2nc3ccccc3n2CCN2CCOCC2)cc1.Cl — lower, -64.2%
- COc1ccc(OC)c(C(C)NC(=O)C(C)n2cc([N+](=O)[O-])cn2)c1 (centres unmarked) — lower, -2.64%
- COCC(C)n1c(C)cc(C(=O)COC(=O)C2=NN(c3ccccc3)C(=O)CC2)c1C (centres unmarked) — lower, 7.87%
- COc1ccc(C)cc1NC(=O)NNC(=O)c1cc2ccccc2cc1O — higher, 12.1%
- C=CCn1c(Cc2cccs2)nnc1SCC(=O)NC1CC1 — lower, 0.472%
- N#C/C(=C/c1ccc(F)cc1)c1nnc(NC(=O)c2ccccc2)s1 — higher, 11.5%
- CC(C)(C)N=C1NC(=NC(C)(C)C)c2ccccc21 — lower, -36.8%
- COc1cc(/C=N/NC(=O)CC#N)cc(Br)c1O — lower, 4.29%
- O=C(NCCOc1ccccc1)c1cc(C(=O)NCCOc2ccccc2)cc([N+](=O)[O-])c1 — lower, -15.2%
- CCC1(c2ccc(F)cc2)NC(=O)N(CC(=O)NC2CC2)C1=O (centres unmarked) — higher, 32.2%
- CC(=O)N1CCN(S(=O)(=O)c2cccc(C(=O)NNC(=O)Cn3ccc(C(F)(F)F)n3)c2)CC1 — higher, 10.3%
- Cc1cc(Br)ccc1NC(=O)CNC(=O)Cn1ncc(Cl)c(Cl)c1=O — lower, 3.98%
- COc1ccc(OC)c2[nH]c(C(=O)N/N=C/c3ccccc3O)cc12 — higher, 14.5%
